# Source: PubChem BioAssay AID686979 (National Center for Advancing Translational Sciences (NCATS), 2013)
# The whole screen tested about 420,000 compounds, of which about 50,000 (12%) were called active. Inconclusive means that the source gave no clear call. Such entries were picked first, then a sample of the others. The call rests on the fitted dose curve; in most records, active means well fitted inhibition curve with a large enough effect; inconclusive means small, poorly fitted or top-dose-only effect; inactive means flat fitted curve, though single readings scatter. No potency is given beside an inconclusive call; the fits are too rough.
# Assay: qHTS for Inhibitors of human tyrosyl-DNA phosphodiesterase 1 (TDP1): qHTS in cells in presence of CPT; further: nearly all actives have a fitted effect of over 55% in size
# Settings: chicken DT40 Tdp1-/-;hTDP1 cells + 20 nM CPT, ATP luminescence, 48 h; activity change, negative = growth inhibition: at 46.2 µM (top of the series) unless noted
# Procedure, shortened: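 Chicken DT40 Tdp1-/- cells stably complemented with human TDP1 were seeded at 400 cells/well in medium containing 20 nM camptothecin, exposed to pin-transferred compounds, and grown at 37 °C for at least 48 hr. Viability was read as ATP luminescence.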
# On the % scale 0 is the no-effect control and ±100 the full control effect; potency means the concentration at half of the fitted maximal effect; tags describe the fitted curve by direction and shape.
SMILES,Potency,"activity change, negative = growth inhibition"
O=C(Nc1cc(C(F)(F)F)ccc1N1CCOCC1)c1ccc(Br)o1,"inconclusive [inhibitor, single point]",
COc1ccc(/C(N)=N/OC(=O)c2ccc(C)c([N+](=O)[O-])c2)cc1OC,"inconclusive [inhibitor, partial curve]",
Nc1nc(CSC(=S)N2CCOCC2)nc(Nc2ccccc2)n1,"inconclusive [inhibitor, partial curve]",
C[C@H](CO)N1C[C@H](C)[C@@H](CN(C)CC2CC2)Oc2c(NC(=O)C3CC3)cccc2C1=O,,inconclusive: -30.1% [inhibitor]
COc1ccc(CNC(=O)N2CCN(c3cccc(C)c3C)CC2)cc1OC,"inconclusive [inhibitor, single point]",
C=CC[C@@H](CC(=O)NCCO)C(=O)NC[C@@H](OC(=O)[C@H](CC=C)CC(=O)OC(C)(C)C)c1ccccc1,"inconclusive [inhibitor, single point]",
CCCCNC(=O)CN1CCN(c2ccc(NC(=O)c3ccc(OC)cc3)cc2C(=O)O)CC1,,inactive: -2.39%
Cn1c(CSc2nc3ccccc3s2)nnc1SCC(=O)NCCN1CCOCC1,,inactive: -5.98%
CCOC(=O)c1sc2nc(C)nc(SC(C)C(=O)N(C)c3ccccc3)c2c1C (centres undefined),"inconclusive [inhibitor, single point]",
Cc1nc(/C(N)=N/OC(=O)c2ccc(Cl)cc2)c(C(F)(F)F)o1,"inconclusive [inhibitor, full curve, poor fit]",
O=C1CC(N2CCN(c3ccccc3)CC2)C(=O)N1c1ccc2c(c1)OCO2 (centres undefined),"inconclusive [inhibitor, single point]",
Cc1ccccc1C(=O)O/N=C(\c1ccccc1)c1ccccn1,"inconclusive [inhibitor, single point]",
COc1ccc(Nc2ncnc3c2c(C)c(C)n3CCO)cc1,,inactive: -14.9%
O=C(CC12CC3CC(CC(C3)C1)C2)NCC(=O)N1CCc2ccccc2C1,"inconclusive [inhibitor, single point]",
Cc1cccc(C(=O)NCC(=O)OCC(=O)c2ccc(Br)s2)c1,,inactive: -5.65%
O=C1CCC[C@@H]2Cc3nc4cc5c(cc4cc3[C@@H]3CCN1[C@H]23)OCO5,active: 18.4 µM,
COc1ccc(NC(=O)c2cc(-c3cc(F)ccc3OC)n[nH]2)cc1OC,active: 20.6 µM,
O=C(NC1CCCCC1)c1cccc(NC(=O)c2ccccc2Cl)c1,"inconclusive [inhibitor, single point]",
COC(=O)[C@H]1C[C@@]2(O)CN(S(=O)(=O)c3ccc(C)cc3)C[C@@]2(OC(=O)NCc2ccccc2)C[C@H]1C(=O)OC,"inconclusive [inhibitor, single point]",
Cc1ccc(N(C)S(=O)(=O)c2nnc(NC(=O)c3ccco3)s2)cc1,inactive,
CCCC(c1nnnn1Cc1ccccc1)N1CCN(c2ccccc2OC)CC1 (centres undefined),"inconclusive [inhibitor, single point]",
COc1ccc(C(=O)NC2CCN(CC(=O)NCc3cccc(OC)c3)CC2)cc1,,inactive: -13.1%
C=CCn1c(=O)c2c3c(sc2n2c(Nc4ccc(OC)cc4)nnc12)CCCC3,active: 9.2 µM,

SMILES,Potency,"activity change, negative = growth inhibition"
CSc1ccccc1NC(=S)NC1CCCC1,,inactive: -3.9%
CC(=O)C1CCC2C3CCC4CC(=O)CCC4(C)C3C(O)CC12C (centres undefined),"inconclusive [inhibitor, single point]",
CCOc1ccc(NC(=O)CSc2nc3[nH]ncc3c(=O)[nH]2)cc1,,inactive: -18.6%
O=C(C[n+]1ccccc1Br)c1ccc(I)cc1,,inactive: -5.03%
COc1cc(/C=N/n2cnnc2)ccc1OC(=O)c1cccnc1,"inconclusive [inhibitor, single point]",
COc1ccc(OC)c(NC(=O)C2=C(C)NC(=O)NC2c2cccs2)c1 (centres undefined),,inactive: -9.91%
CCOc1ccc(OCC)c(NC(=O)Cn2c(C)nc3ccccc3c2=O)c1,"inconclusive [inhibitor, single point]",
CC(OC(=O)Cc1ccccc1[N+](=O)[O-])C(=O)NC(=O)NC1CCCCC1 (centres undefined),,inactive: -8.09%
CCOCCn1ccc2c(OCC(=O)NCc3ccc(C)cc3)cccc2c1=O,,inactive: -21.4%
Cc1ccccc1NC(=O)NCc1ccc2c(c1)OCO2,,inactive: -8.57%
COc1cccc(N2C(=O)CC(NNc3nc4ccccc4s3)C2=O)c1 (centres undefined),,inactive: 16.3%
Cc1ccccc1NC(=O)CSc1nnc(COc2ccc(Cl)cc2)o1,,inactive: 4.3%
O=C(Oc1cc(=O)oc2c1c(=O)n1c3c(cccc23)CC1)c1ccccc1,"inconclusive [inhibitor, single point]",
C[C@H](O)[C@@H]1C(=O)N2CCc3c([nH]c4ccccc34)[C@@H]2C[C@@H]1N(C)Cc1ccc2c(c1)OCO2,"inconclusive [inhibitor, partial curve, poor fit]",
COC(=O)Nc1ccc2ccc3c(NC(=O)OC)ccc4ccc1c2c43,"inconclusive [inhibitor, single point]",
COc1cccc(-c2cc(C(=O)Nc3cc(OC)c(OC)c(OC)c3)no2)c1,active: 11.6 µM,
COC(=O)c1ccc(C2=NOC(C)(c3nnc(-c4cccc(Cl)c4)o3)C2)cc1 (centres undefined),"inconclusive [inhibitor, single point]",
CC(C)(C)[C@H]1C=C(C(=O)Nc2ccccc2)O[C@@H](OCCCCO)C1,,inconclusive: -31.8% [inhibitor]
CCN1C(=O)[C@H]2[C@@H](c3ccc(C)cc3)N3C(=O)N(c4cccc(Cl)c4)C(=O)[C@@]3(CC(C)C)[C@H]2C1=O,"inconclusive [inhibitor, partial curve]",
COc1ccc(-c2cn3nc(N4CCCC(C(=O)Nc5cccc(Cl)c5C)C4)sc3n2)cc1 (centres undefined),"inconclusive [inhibitor, single point]",
NC(=O)CCC(NS(=O)(=O)c1ccc(Cl)cc1)C(=O)NCC1CCCCC1 (centres undefined),"inconclusive [inhibitor, single point]",
CCN(CC)S(=O)(=O)c1ccc(C(=O)N2CCc3ccccc32)cc1,"inconclusive [inhibitor, partial curve, poor fit]",
CC(C)c1ccc(N2C(=O)[C@@H]3Cc4ccccc4CN3C2=O)cc1,,inactive: -13.3%

SMILES,Potency,"activity change, negative = growth inhibition"
O=C(NCCC1CCCCN1S(=O)(=O)c1ccccc1)C(=O)Nc1ccccc1 (centres undefined),"inconclusive [inhibitor, single point]",
COc1cccc(-c2nc(CS(=O)(=O)CC(=O)NC3CCCCCC3)c(C)o2)c1,,inconclusive: -30.3% [inhibitor]
COCCCNC(=O)N1[C@H](c2cccs2)[C@@H](C)C(=O)[C@@H](C)[C@@H]1c1cccs1,"inconclusive [inhibitor, single point]",
CC(=O)c1cccc(NS(=O)(=O)c2ccc3c(c2)oc(=O)n3C)c1,"inconclusive [inhibitor, partial curve]",
C=CCNC1=C(Cl)C(=O)N(c2cccc(Cl)c2Cl)C1=O,,inactive: 5.63%
COc1ccc(OC)c(CCNC(=O)c2ccc(CS(=O)Cc3ccc(Cl)cc3)o2)c1 (centres undefined),active: 23.1 µM,
O=C(Cn1cc(C(=O)c2ccncc2)c(=O)c2cc(F)ccc21)Nc1ccc(Cl)cc1,"inconclusive [inhibitor, single point]",
CCOc1ccc(Cn2nnc(C(=O)NCCc3ccccc3)c2N)cc1,,inactive: 1.31%
CCNc1nc(NCC)nc(-n2cc(C(=O)c3cc(Cl)ccc3O)cn2)n1,"inconclusive [inhibitor, single point]",
O=C1c2[nH]nc(-c3ccccc3O)c2C(c2cccc(O)c2)N1Cc1ccncc1 (centres undefined),,inactive: -6.31%
Cc1ccc(O)c(NC(=O)c2noc3c2CCCC3)c1,"inconclusive [inhibitor, partial curve, poor fit]",
O=C(OCCOc1cccc(Cl)c1)c1cc(S(=O)(=O)N2CCOCC2)ccc1F,"inconclusive [inhibitor, single point]",
COc1ccccc1NC(=O)C1CCN(S(=O)(=O)c2ccc3c(c2)CC(C)N3C(C)=O)CC1 (centres undefined),"inconclusive [inhibitor, single point]",
COc1cccc(C(C)(O)c2nc(-c3ccc4ccccc4c3)cs2)c1 (centres undefined),"inconclusive [inhibitor, single point]",
COc1ccccc1CNC(=O)CCn1c(=O)c2ccccc2n(CC(=O)Nc2ccc(Br)cc2F)c1=O,active: 23.1 µM,
Cc1cccc(NC(=S)Nc2cccc3ccccc23)c1,"inconclusive [inhibitor, partial curve, poor fit]",
CCOC(=O)c1cc(-c2csc(Nc3ccccc3Cl)n2)on1,,inactive: -0.348%
COc1cccc(-n2cc(C(=O)OCc3ccc(F)c(F)c3)c3ccccc3c2=O)c1,"inconclusive [inhibitor, partial curve]",
Cc1ccc(NC(=O)/C(=C\c2ccccc2)NC(=O)/C=C/c2ccccc2)cc1,,inactive: -9.87%
O=C(CNc1cccc([N+](=O)[O-])c1)N/N=C/c1ccc([N+](=O)[O-])o1,active: 2.91 µM,
Cn1c(CC(=O)Nc2ccc(Cl)c(Cl)c2)nnc1SCC(=O)NCc1ccccc1,,inactive: -7.34%
Cc1ccc2c(c1)N(S(=O)(=O)c1cc(-c3onc(C)c3C)ccc1C)CCO2,active: 23.1 µM,
C=CCOC(=O)C1=C[C@@H](c2coc3ccccc3c2=O)[C@H](CCCO)[C@@H](OCC)O1,"inconclusive [inhibitor, single point]",
